From the RNAGym collection of RNA variant scans (doi:10.7554/elife.90254)
Read counts are not given, so values of variants with three or more changes are uncertain.

B1: LINE1-full (parent)
chain: UACGUAGGUGGUUUUCCCCUGAUAGUGCUAAGGGGGCCUGGAAGUUUGGACUGGGCAGAGCUCAACACAGCGUGGCAAAGUGGCUGUGGCUAGACUGCCUCUCUGGAUUCCUCGUCACUCAGCAGGGCAUCUCUGAGAGAAAUGCC

Variants of: B1
Assay: self-cleavage, relative activity (ratio to wild type); higher = more cleavage; in vitro, sequencing; the parent is a self-cleaving ribozyme

Row | Variant | self-cleavage
1 | UACGUAGGUGGCUUUCCCCUGAUAGUGCUAAGGGGGCCUGGAAGUUUGGACUGGGCAGAGCUCAACACAGCGUGGCAGAAUGGCUGUGGCUGGACUGCCUCUCAGGAUUCCUCGUCACUCAGCAGGGCAUCUCUGAGAGAAAUGCC | 0.28
2 | UACGUAGGUGGCUUUCCCCUGAUAGUGCUAAGGGGGCCUGGAAGUUUGGACUGGGCAGAGCUCAACACAGCGUGGCAGAGUGGCUGUGUCUAGACUGCCUCUCUGGAUUCCUCGUCACUCAGCAGGGCAUCUCUGAGAGAAAUGCC | 0.07
3 | UACGUAGGUGGCUUUCCCCUGAUAGUGCUAAGGGGGCCUGGAAGUUUGGACUGGGCAGAGCUCAACACAGCGUGGCAGAGUGGCUGUGGCUAGACUGCCUCUCUGGAUUCCUCUUCACUCAGCAGGGCAUCUCUGAGAGAAAUGCC | 1.37
4 | UACGUAGGUGGCUUUCCCCUGAUAGUGCUAAGGGGGCCUGGAAGUUUGGACUGGGCAGAGCUCAACACAGCGUGGCAGAGUGGCUGUGGCUAGACUGCCUCUCUGGAUUCCUCGUCACACAGCUGGGCAUCUCUGAGAGGAAUGCC | 1.57
5 | UACGUAGGUGGCUUUCCCCUGAUAGUGCUAAGGGGGCCUGGAAGUUUGGACUGGGCAGAGCUCAACACAGCGUGGCAAGGUGGCUGUGGCUAGACUGCCUCUCUGGAUUCCUCGUCACUCAGCAGGGCAUCUCUGAGAGUAAUGCC | 1.35
6 | UACGUAGGUGGCUUUCCCCUGAUAGUGCUAAGGGGGCCUGGAAGUUUGGACUGGGCAGAGCUCAACACAGCGUGGCAAAGUGGCUGUGGCUCGACUGCCUCUCUGGAUUCCACGUCACUCAGCAGGGCAUCUCUGAGAGAAAUGCC | 0.13
7 | UACGUAGGUGGCUUUCCCCUGAUAGUGCUAAGGGGGCCUGGAAGUUUGGACUGGGCAGAGCUCAACACAGCGUGGCAAAGUGGCUGUGGCUGGACUGCCUCUCUGGAUUCCCCGUCACUCAGCAGGGCAUCUCUGAGAGAAAUGCC | 0.73
8 | UACGUAGGUGGCUUUCCCCUGAUAGUGCUAAGGGGGCCUGGAAGUUUGGACUGGGCAGAGCUCAACACAGCGUGGCAAAGUGGCUGUGGCUUGACUGCCUCUCUGGAUUCCUCGUCACUCAGCAGGGCGUCUCCGAGAGAAAUGCC | 1.53
9 | UACGUAGGUGGCUUUCCCCUGAUAGUGCUAAGGGGGCCUGGAAGUUUGGACUGGGCAGAGCUCAACACAGCGUGGCAAAGUGGCUGUGGCUAGGCUGCCUCUCUGGGUUCCUCGUCACUCAGCAGGGCAUCUCUGAGAGAAAUGCC | 0.68
10 | UACGUAGGUGGCUUUCCCCUGAUAGUGCUAAGGGGGCCUGGAAGUUUGGACUGGGCAGAGCUCAACACAGCGUGGCAAAGUGGCUGUGGCUAGGCUGCCUCUCUGGAUUCCUCGUCACUCAGCGGGGCAUCUCUGAGAGAAAUGCC | 0.89
11 | UACGUAGGUGGCUUUCCCCUGAUAGUGCUAAGGGGGCCUGGAAGUUUGGACUGGGCAGAGCUCAACACAGCGUGGCAAAGUGGCUGUGGCUAGGCUGCCUCUCUGGAUUCCUCGUCACUCAGCAGGGCAUCUCUGAGAGGAAUGCC | 0.15
12 | UACGUAGGUGGCUUUCCCCUGAUAGUGCUAAGGGGGCCUGGAAGUUUGGACUGGGCAGAGCUCAACACAGCGUGGCAAAGUGGCUGUGGCUAGGCUGCCUCUCUGGAUUCCUCGUCACUCAGCAGGGCAUCUCUGAGAGAGAUGCC | 0.26
13 | UACGUAGGUGGCUUUCCCCUGAUAGUGCUAAGGGGGCCUGGAAGUUUGGACUGGGCAGAGCUCAACACAGCGUGGCAAAGUGGCUGUGGCUAGGCUGCCUCUCUGGACUCCUCGUCACUCAGCAGGGCGUCUCUGAGAGAAAUGCC | 0
14 | UACGUAGGUGGCUUUCCCCUGAUAGUGCUAAGGGGGCCUGGAAGUUUGGACUGGGCAGAGCUCAACACAGCGUGGCAAAGUGGCUGUGGCUAGACUGCCUCUCUGGAUUCCUCGUCGCUCAGCAGGGCUUCUCUGAGAGAAAUGCC | 1.43
15 | UACGUAGGUGGCUUUCCCCUGAUAGUGCUAAGGGGGCCUGGAAGUUUGGACUGGGCAGAGCUCAACACAGCGUGGCAAAGUGGCUGUGGCUAGACUGCCUCUCUGGAUUCCUCGUCACUCGGCUGGGCAUCUCUGAGAGAAAUGCC | 1.84
16 | UACGUAGGUGGCUUUCCCCUGAUAGUGCUAAGGGGGCCUGGAAGUUUGGACUGGGCAGAGCUCAACACAGCGUGGCAAAGUGGCUGUGGCUAGACUGCCUCUCUGGAUUCCUCGUCACUCAGCUGGGCAUCUCUGAAAGAAACGCC | 1.14
17 | UACGUAGGUGGCUUUCCCCUGAUAGUGCUAAGGGGGCCUGGAAGUUUGGACUGGGCAGAGCUCAACACAGCGUGGCAAAGUGGCUGUGGCUAGACUGCCUCUCUGGAUUCCUCGUCACUCAGCAGGGCGUCUCUGAGAGAAAAGCC | 1.71
18 | UACGUAGGUGGCUUUCUCCUGAUGGUGCUAAGGGGGCCCGGAAGUUUGGACUGGGCAGAGCUCAACACAGCGUGGCAAAGUGGCUGUGGCUAGACUGCCUCUCUGGAUUCCUCGUCACUCAACAGGGCAUCUCUGAGAGAAAUGCC | 0.8
19 | UACGUAGGUGGCUUUCUCCUGAUAGUGCUAAGGGGGCCUGGGAGUUUGGACUGGGCAGAGCUCAACUCAGCGUGGCAAAGUGGCUGUGGCUAGACAGCCUCUCUGGAUUCCUCGUCACUCAGCAGGGCAUCUCUGAGAGAAAUGCC | 0.1
20 | UACGUAGGUGGCUUUCUCCUGAUAGUGCUAAGGGGGCCUGGAAGUUUGGACUGGGCAGAGCUCAACACAGCGUGGCAAAGCGGCUGUGGCUAGACUGCCUCUCUGGAUUCCUCGUCACUCAGCAGGGCAUCUCUGAGAGAAAUGCC | 0.6

Row | Variant | self-cleavage
21 | UACGUAGGUGGCUUUCCUCUGAUAGUGCUAAGGGGGCCUGGAAGUUUGGACUGGGCAGAGCUCAACACAGCGUGGCAAAGUGGCUGUGGCCAGACUGCCUCUCUGGAUUCCUCGUCACUCAGCAGGGCAUCUCUGAGAGAAAUGCC | 0.45
22 | UACGUAGGUGGCUUUCCCUUGAUAGUGCUAAGGGGGCCUGGAAGUUUGGACUGGGCAGAGCUCAACACAGCGUGGCAAAGUGGCUGUGGCUAGACUGCCUCCCUGGAUUCCUCGUCACUCAGCAGGGCAUCUCUGAGAGAAAUGCC | 0.53
23 | UACGUAGGUGGCUUUCCCUUGAUAGUGCUAAGGGGGCCUGGAAGUUUGGACUGGGCAGAGCUCAACACAGCGUGGCAAAGUGGCUGUGGCUAGACUGCCUCUCCGGAUUCCUCGUCACUCAGCAGGGCAUCUCUGAGAGAAAUGCC | 0.77
24 | UACGUAGGUGGCUUUCCCCUGAUAGUGAUAAGGGGGACUGGAAGUUUGGACUGGGCAGAGCUCAACACAGCGUGGCAAAGUGGCUGUGGCUAGACUGCCUCUCUGGAUUCCUCGUCACUCAGCAGGGCAUCUCUGAGAGAAAUGCC | 0.49
25 | UACGUAGGUGGCUUUCCCCUGAUAGUGUUAAGGGGGCCUGGAAGUUUGGACUGGGCAGAGCUCGACACAGCGUGGCAAAGUGGCUGUGGCUAGACUGCCUCUCUGGAUUCCUCGUCACUCAGCAGGGCAUCUCUGAGAGAAAUGCC | 0.27
26 | UACGUAGGUGGCUUUCCCCUGAUAGUGCUAAGGGGGCAUGGAAGUUUGGACUGGGCAGAGCUCAACACAGCGUGGCAAAGUGGCUGUGGCUAGACUGCCUCUCUGGAUUCCUCGUCGCUCAGCAGGGCAUCUCUGAGAGAAAUGCC | 0.55
27 | UACGUAGGUGGCUUUCCCCUGAUAGUGCUAAGGGGGCAUGGAAGUUUGGACUGGGCAGAGCUCAACACAGCGUGGCAAAGUGGCUGUGGCAAGACUGCCUCCCUGGAUUCCUCGUCACUCAGCAGGGCAUCUCUGAGAGAAAUGCC | 0.93
28 | UACGUAGGUGGCUUUCCCCUGAUAGUGCUAAGGGGGCUUGGGAGUUUGGACUGGGCAGAGCUCAACACAGCGUGGUAAAGUGGCUGUGGCUAGACUGCCUCUCUGGAUUCCUCGUCACUCAGCAGGGCAUCUCUGAGAGAAAUGCC | 1.29
29 | UACGUAGGUGGCUUUCCCCUGAUAGUGCUAAGGGGGCUUGGAAGUUUGGACUGGGCAGAGCUCAACACAGCGUGGCAAAGUGGCUGUGGCUAGACUGCCUCUCUGGAUUCCACGUCACUCAGCAGGGCAUCUCUGAGGGAAAUGCC | 1.53
30 | UACGUAGGUGGCUUUCCCCUGAUAGUGCUAAGGGGGCCUGGAAGUUUGGAUUGGGCAGAGCUCAACACAGCGUGGCAAAGUGGCUGUGGCUAGACUGCCUCUCUGGAUUCCUCGUCACUCAGCAGGGCAUCUCUGAGGGUAAUGCC | 1.62
31 | UACGUAGGUGGCUUUCCCCUGAUAGUGCUAAGGGGGCCUGGAAGUUUGGACUGGGCAGAGCUCAAUACAGCGUGGCAAAGUGGCUGUGGCUAGACUGCCUCUCUGGAUUCCUCGUCUCUCAGCAGGGCAUCUCUGAGAGAAAUGCC | 0.03
32 | UACGUAGGUGGCUUUCCCCUGAUAGUGCUAAGGGGGCCUGGAAGUUUGGACUGGGCAGAGCUCAACACAGUGUGGCAAAGUGGCUGUGGCUAGACUGCCUCUCUGGAUUCCUCGUCACUUAGCAGGGCAUCUCUGAGAGAAAUGCC | 0.51
33 | UACGUAGGUGGCUUUCCCCUGAUAGUGCUAAGGGGGCCUGGAAGUUUGGACUGGGCAGAGCUCAACACAGUGUGGCAAAGAGGCUGUGGCUAGACUGCCUCUCUGGAUUCCUCGCCACUCAGCAGGGCAUCUCUGAGAGUAAUGCC | 1.3
34 | UACGUAGGUGGCUUUCCCCUGAUAGUGCUAAGGGGGCCUGGAAGUUUGGACUGGGCAGAGCUCAACACAGCGUGGUGGAGUGGCUGUGGCUAGACUGCCUCUCUGGAUCCCUCGUCACUCAGCAGGGCAUCUCUGAGAGAAAUGCC | 2.15
35 | UACGUAGGUGGCUUUCCCCUGAUAGUGCUAAGGGGGCCUGGAAGUUUGGACUGGGCAGAGCUCAACACAGCGUGGUAAAGUGGCUGUGGCUAGACUGCCUCUCUGGAUUCCACGUCACUCAGCAGGGCAUCUCUGAGAGAAAUGCC | 2.54
36 | UACGUAGGUGGCUUUCCCCUGAUAGUGCUAACGGGGCCUGGAAGUUUGGACUGGGCAGAGCCCAACACAGCGUGGCAAAGUGGCUGUGGCUAGACUGCCUCUCUGGAUUCCUCGUCACUCAGCAGGGCAUCUCUGAGAGAAAUGCC | 0.26
37 | UACGUAGGUGGCUUUCCCCUGAUAGUGCUAAGAGGGCCUGGAAGUUUGGACUGGGCAGAGCUCAACACAGCGUGGCAAAGCGGCUGUGGCUAGACUGCCUCUCUGGAUUCCUCGUCACUCAGCAGGGCAUCUCUGAGAGAAAUGCC | 1.06
38 | UACGUAGGUGGCUUUCCCCUGAUAGUGCUAAGUGGGCCCGGAAGUUUGGACUGGGCAGAGCCCAACACAGCGUGGCAAAGUGGCUGUGGCUAGACUGCCUCUCUGGAUACCUCGUCACUCAGCAGGGCAUCUCUGAGAGAGAUGCC | 0.05
39 | UACGUAGGUGGCUUUCCCCUGAUAGUGCUAAGGGAGCCUGGAAGUUUGGACUGGGCAGAGCUCAACACGGCGUGGCAAAGCGGCUGUGGCUAGACUGCCUCUCUGGAUUCCUCGUCACUCAGCAGGGCAUAUCUGAGAGAAAUGCC | 1.17
